Test results from paper PMC4526674.
Results are given in words; binding and its absence hold for the method and conditions named. Some entries that bind do so weakly or less than the wild type.

T1: Recombinant human transglutaminase 2 (TG2), Sf9-produced (human), P21980
T1 chain: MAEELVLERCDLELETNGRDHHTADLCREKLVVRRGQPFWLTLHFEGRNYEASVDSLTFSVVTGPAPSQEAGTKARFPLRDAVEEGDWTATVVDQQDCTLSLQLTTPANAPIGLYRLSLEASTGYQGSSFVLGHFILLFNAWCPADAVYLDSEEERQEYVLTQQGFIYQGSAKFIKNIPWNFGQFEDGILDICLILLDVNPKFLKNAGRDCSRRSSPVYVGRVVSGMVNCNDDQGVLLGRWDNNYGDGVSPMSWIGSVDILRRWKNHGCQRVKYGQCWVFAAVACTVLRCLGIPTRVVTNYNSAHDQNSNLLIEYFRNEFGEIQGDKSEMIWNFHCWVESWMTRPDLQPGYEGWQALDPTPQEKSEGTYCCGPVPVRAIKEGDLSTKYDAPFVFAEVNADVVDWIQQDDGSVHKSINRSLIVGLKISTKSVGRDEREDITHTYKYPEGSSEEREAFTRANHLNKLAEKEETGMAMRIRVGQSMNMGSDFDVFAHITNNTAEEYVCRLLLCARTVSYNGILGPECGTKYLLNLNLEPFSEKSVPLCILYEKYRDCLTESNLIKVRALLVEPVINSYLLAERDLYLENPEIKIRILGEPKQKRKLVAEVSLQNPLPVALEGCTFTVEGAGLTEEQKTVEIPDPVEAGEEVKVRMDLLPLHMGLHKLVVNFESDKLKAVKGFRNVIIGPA

T2: Full length E. coli-produced TG2 (active) (human), P21980
T2 chain: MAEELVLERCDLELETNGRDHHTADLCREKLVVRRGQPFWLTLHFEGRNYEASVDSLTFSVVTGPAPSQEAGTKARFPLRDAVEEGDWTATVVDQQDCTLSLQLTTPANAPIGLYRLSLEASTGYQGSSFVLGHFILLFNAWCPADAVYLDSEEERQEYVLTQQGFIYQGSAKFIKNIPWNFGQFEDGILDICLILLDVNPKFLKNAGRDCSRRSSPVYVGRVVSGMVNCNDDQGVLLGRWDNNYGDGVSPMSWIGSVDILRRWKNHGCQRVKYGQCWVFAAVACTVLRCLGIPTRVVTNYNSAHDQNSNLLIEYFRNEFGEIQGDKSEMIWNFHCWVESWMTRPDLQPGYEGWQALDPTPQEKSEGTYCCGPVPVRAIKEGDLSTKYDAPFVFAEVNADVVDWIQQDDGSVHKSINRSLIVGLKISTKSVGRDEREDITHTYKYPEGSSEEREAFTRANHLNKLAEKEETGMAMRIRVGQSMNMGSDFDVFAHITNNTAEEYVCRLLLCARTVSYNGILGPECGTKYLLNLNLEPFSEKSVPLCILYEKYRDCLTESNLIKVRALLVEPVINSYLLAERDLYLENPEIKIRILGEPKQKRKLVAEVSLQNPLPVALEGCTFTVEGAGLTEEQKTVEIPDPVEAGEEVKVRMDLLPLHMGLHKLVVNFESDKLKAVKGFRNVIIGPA


Columns and labels:
Settings in all cases: remark: other sources report otherwise
[1] = biological target: T1, Recombinant human transglutaminase 2 …; test: cross-linking; BS3 (0.5 mM) capture of non-covalent complexes; TG2 pre-incubated without effectors (no CaCl2) for 30 min at 37°C in 20 mM HEPES pH 7.5, 150 mM NaCl; SDS-PAGE; both purified
[2] = biological target: T1, Recombinant human transglutaminase 2 …; test: cross-linking; enzymatic self-crosslinking by TG2's own transglutaminase activity; 5 mM (or 1 mM) CaCl2, 37°C, TBS pH 7.4 (50 mM Tris HCl, 150 mM NaCl); products resolved by 4-20% gradient SDS-PAGE, Coomassie; both purified
[3] = biological target: T2, Full length E. coli-produced TG2 …; test: as above

| Binder | binding [1] | binding [2] | binding [3] |
| --- | --- | --- | --- |
| Recombinant human transglutaminase 2 (TG2), Sf9-produced, P21980 1-687 (enzyme) MAEELVLERCDLELETNGRDHHTADLCREKLVVRRGQPFWLTLHFEGRNYEASVDSLTFSVVTGPAPSQEAGTKARFPLRDAVEEGDWTATVVDQQDCTLSLQLTTPANAPIGLYRLSLEASTGYQGSSFVLGHFILLFNAWCPADAVYLDSEEERQEYVLTQQGFIYQGSAKFIKNIPWNFGQFEDGILDICLILLDVNPKFLKNAGRDCSRRSSPVYVGRVVSGMVNCNDDQGVLLGRWDNNYGDGVSPMSWIGSVDILRRWKNHGCQRVKYGQCWVFAAVACTVLRCLGIPTRVVTNYNSAHDQNSNLLIEYFRNEFGEIQGDKSEMIWNFHCWVESWMTRPDLQPGYEGWQALDPTPQEKSEGTYCCGPVPVRAIKEGDLSTKYDAPFVFAEVNADVVDWIQQDDGSVHKSINRSLIVGLKISTKSVGRDEREDITHTYKYPEGSSEEREAFTRANHLNKLAEKEETGMAMRIRVGQSMNMGSDFDVFAHITNNTAEEYVCRLLLCARTVSYNGILGPECGTKYLLNLNLEPFSEKSVPLCILYEKYRDCLTESNLIKVRALLVEPVINSYLLAERDLYLENPEIKIRILGEPKQKRKLVAEVSLQNPLPVALEGCTFTVEGAGLTEEQKTVEIPDPVEAGEEVKVRMDLLPLHMGLHKLVVNFESDKLKAVKGFRNVIIGPA | binds | binds | – |
| Full length E. coli-produced TG2 (active), P21980 1-687 (enzyme) MAEELVLERCDLELETNGRDHHTADLCREKLVVRRGQPFWLTLHFEGRNYEASVDSLTFSVVTGPAPSQEAGTKARFPLRDAVEEGDWTATVVDQQDCTLSLQLTTPANAPIGLYRLSLEASTGYQGSSFVLGHFILLFNAWCPADAVYLDSEEERQEYVLTQQGFIYQGSAKFIKNIPWNFGQFEDGILDICLILLDVNPKFLKNAGRDCSRRSSPVYVGRVVSGMVNCNDDQGVLLGRWDNNYGDGVSPMSWIGSVDILRRWKNHGCQRVKYGQCWVFAAVACTVLRCLGIPTRVVTNYNSAHDQNSNLLIEYFRNEFGEIQGDKSEMIWNFHCWVESWMTRPDLQPGYEGWQALDPTPQEKSEGTYCCGPVPVRAIKEGDLSTKYDAPFVFAEVNADVVDWIQQDDGSVHKSINRSLIVGLKISTKSVGRDEREDITHTYKYPEGSSEEREAFTRANHLNKLAEKEETGMAMRIRVGQSMNMGSDFDVFAHITNNTAEEYVCRLLLCARTVSYNGILGPECGTKYLLNLNLEPFSEKSVPLCILYEKYRDCLTESNLIKVRALLVEPVINSYLLAERDLYLENPEIKIRILGEPKQKRKLVAEVSLQNPLPVALEGCTFTVEGAGLTEEQKTVEIPDPVEAGEEVKVRMDLLPLHMGLHKLVVNFESDKLKAVKGFRNVIIGPA | – | – | binds |
